The text below walks through data of the supplement of paper PMC12340641.

SMILES strings stand for the structures. The full ranking holds about 1,000 compounds; the median of “relative growth in counter assay (no AraC = 100%, AraC + DMSO = 0%)” is about -1.1, and the highest 2% start at about 20. The list shows a part of the results.

This assay deals with HEK293FT dCK*-only. The assay can be described thus: relative growth in counter assay (no AraC = 100%, AraC + DMSO = 0%); higher = more growth rescue independent of IKZF1. Particulars: compound concentration: 5 uM; AraC concentration: 0.3 uM; overnight pretreatment + 4 days AraC. As for the experimental part:
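Growth recovery screen of the molecular-glue-like (Specs) library. HEK293FT cells expressing a dCK*-IKZF1 fusion (primary) or dCK* alone (counter) were pretreated overnight with compound at 5 uM, then given 0.3 uM AraC for 4 days. Hoechst nuclei were counted by imaging. Primary: normalised to pomalidomide (100%) and DMSO (0%), mean of 2 replicates. Counter: normalised to no-AraC (100%) and AraC+DMSO (0%), single replicate.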
As to `CCC(C)(C)C(=O)Nc1ccc(S(=O)(=O)Nc2ncccn2)cc1`, the “relative growth in counter assay” value was -5.73%.
With `COc1ccccc1CCC(=O)N1CCOC(c2cccc(Nc3ncc(C)s3)n2)C1` (stereo unspecified) the figure was 8.09%; with `O=C(C1CCCCC1)N1CCOC(c2cccc(Nc3ncc(Cc4ccc(F)cc4)s3)n2)C1` (stereo unspecified), -1.26%; with `Cc1cnc(Nc2cccc(C3CCN(C(=O)C4CCCC4)CC3)n2)s1`, -18.7%.
With `COc1ccc(OCC(=O)Nc2ccc(S(=O)(=O)Nc3ccccn3)cc2)cc1` the figure was 4.59%; with `O=C(C1CCCCC1)N1CCC(c2cccc(Nc3ncc(Cc4ccccc4)s3)n2)CC1`, -8.2%.
To `Cc1cc(C)nc(NS(=O)(=O)c2ccc(NC(=O)c3ccc(C)c(C)c3)cc2)n1` belongs 3.76%; to `CCCc1cnc(Nc2cccc(C3CCN(C(=O)[C@@H]4CCCN4C(=O)OC(C)(C)C)CC3)n2)s1`, -22.3%; to `Cc1cc(C)nc(NS(=O)(=O)c2ccc(NC(=O)COc3c(C)cccc3C)cc2)n1`, -15.3%.
Take `Cc1cc(C)nc(NS(=O)(=O)c2ccc(NCc3cc(Cl)ccc3O)cc2)n1`: the “relative growth in counter assay” value was 3.82%.
With `O=C(c1[nH]nc2c1CCCCC2)N1CCCC1c1cccc(Nc2nccs2)n1` (stereo unspecified) the figure was -22.1%; with `COC(=O)C(c1cccc(Nc2ncc(C)s2)n1)C1CCN(C(=O)[C@H](CC(C)C)NC(=O)OC(C)(C)C)CC1` (stereo partly specified), -2.35%.
With `CNC(=O)c1cnc(Nc2cccc(C3CCN(C(=O)C4CCCCC4)CC3)n2)s1` the figure was -12.1%.
With `COc1cc(NS(=O)(=O)c2ccc(NC(=O)c3ccc([N+](=O)[O-])cc3)cc2)nc(OC)n1` the figure was 4.43%.
For the molecule `O=C(CSc1nnc2c(n1)[nH]c1ccc(F)cc12)Nc1cccc(F)c1`, the “relative growth in counter assay” value is 5.51%.
To `COc1cc(OC)cc(C(=O)Nc2ccc(S(=O)(=O)Nc3ncccn3)cc2)c1` belongs -0.19%; to `Cc1cnc(Nc2cccc(C3CN(C(=O)C4C5C6CCC(C6)C45)CCO3)n2)s1` (stereo unspecified), -14.3%; to `O=C(C1CNCCO1)N1CCC(c2cccc(Nc3ncc(-c4ccccc4)s3)n2)CC1` (stereo unspecified), 1.14%.
For `CC(C)CC(=O)N1CCCC1c1csc(Nc2ccccn2)n1` (stereo unspecified), the “relative growth in counter assay” value is -4%.
To `C[C@@]1(O)CNCC[C@H]1n1cnc2c(N)nc(N)nc21` belongs -26.7%; to `COCC(=O)N1CCCC(Cc2ccc(Nc3ncc(-c4ccc(F)cc4)s3)nc2)C1` (stereo unspecified), -8.41%; to `Cc1cc(NS(=O)(=O)c2ccc(NC(=O)c3oc4ccccc4c3C)cc2)nc(C)n1`, 2.64%.
Turning to `Cc1cnc(NC(=O)CN2CCC(c3cccc(Nc4ncc(C)s4)n3)CC2)s1`, the “relative growth in counter assay” value was -16.5%.
With `Cc1cc(OCC(=O)Nc2ccc(S(=O)(=O)Nc3ccccn3)cc2)cc(C)c1Cl` the figure was 7.79%; with `CCN(CC)C(=O)CN1CCC(c2cccc(Nc3nc(C)c(C)s3)n2)CC1`, 3.37%.
As for `Cc1cnc(Nc2cccc(C3CN(C(=O)C4CCOC4)CCO3)n2)s1` (stereo unspecified), the “relative growth in counter assay” value is -17.1%.
